# Measured values: the supplement of paper PMC11417369
# ± gives the standard deviation of the averaged measurements. The list shows a part of the results.
# Test system: PfAP2-LT AP2 domain (GST-tagged)
# Assay: gcPBM binding intensity (ln(normalized median fluorescence intensity)); higher = stronger DNA binding
# Method in brief: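 DNA-binding domains from P. falciparum, fused to GST and produced in E. coli, were put on an Agilent 4 × 180k double-stranded probe array for 1 h in 1× PBS holding 1% milk, 0.2 mg/ml BSA, 0.5% salmon testes DNA and 0.03% Triton X-100. Probes were primer-extended, 36 bp long and drawn from intergenic genomic regions, with negative controls included. After Alexa488 anti-GST antibody detection and a 488 nm scan, binding intensity was set as the highest Masliner-normalised natural-log median intensity across replicate spots of either probe orientation.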
row,Sequence,gcPBM binding intensity (ln)
1,AATATTAAACAAAATAAATATATAAAAAATAAATAA [GTGCAC_negctrl_site93],8.62 ± 0.45
2,AAGTTATATTTGTGTACACATAATTTTATACTAATA [CACACA_site5553],8.83 ± 0.38
3,TATTTAATACGGACTCATAAATCTTAATAAAAAAAA [CACACA_negctrl_site434],8.44 ± 0.3
4,TGATAATAAGCATACACACACACACTAGAAAAAAAA [CACACA_site4558],10.1 ± 0.38
5,TGTTCTTTATTTTATTGTACTTTTAAAATTCCTTTA [XGTACX_site8058],8.63 ± 0.56
6,TTATTTATAAACATATGTACTAATACATGATTAACA [XGTACX_site7645],8.47 ± 0.45
7,GACATATATATAAAATGTACATATATATTTACATAT [XGTACX_site7822],8.91 ± 0.45
8,TATAAAAAAAACGAAAAAAAAAAAAAAAATACAGGA [TGCATGCA_negctrl_site585],8.76 ± 0.58
9,AAAAAAAAAAGACATGCATACGCTAATTTTTAGTTG [TGCATGCA_site300],8.54 ± 0.49
10,TATTATAATAAGAAGTGTACGTGTTTTTATAAATAA [XGTACX_site575],8.54 ± 0.39
11,GTTCCATGAGTATATACATGCATATATCTAGTTTAT [TGCATGCA_site388],9.05 ± 0.44
12,CATTTTTACAACGTTGCACACTTCAAAAGGTTTACA [CACACA_site2760],8.93 ± 0.38
13,TGTTTATACAATATTTGTACATATATTTTTATTTTT [XGTACX_site4104],8.85 ± 0.42
14,TTTTAAATAAAAAAATTAAATTAAAATATATAAAAA [XGTACX_negctrl_site490],7.97 ± 0.48
15,TATAAAAAAAAAAAAAGTACTTAAATATAAATAAAT [XGTACX_site5052],8.62 ± 0.47
16,GATACTCTCTTTTAATGTACAAAATTTTAAAAATTA [XGTACX_site1781],8.27 ± 0.44
17,AATTTATGTTTTAAAAGTACTTTTCTAATTTATAAA [XGTACX_site1593],8.56 ± 0.61
18,TATGTACAGACATATACACACCTCTATAATCTATAT [CACACA_site6482],9.03 ± 0.42
19,CTAAAGTAAATTTAAGCACACACAACGAATTTTTAT [CACACA_site8599],9.16 ± 0.24
20,AATGATATATTATAAACACACAAAGATGAATATATA [CACACA_site2818],9.01 ± 0.45
21,AATTAAAAAAAATACACACACACATACCCATATATA [CACACA_site5767],9.85 ± 0.28
22,TACCCTCGTATATATATACACACTAAAATACAGACA [CACACA_site4154],8.97 ± 0.3

row,Sequence,gcPBM binding intensity (ln)
1,ATTCATTCATATGTTACACACACACCCACCCATAAA [CACACA_site9066],9.71 ± 0.23
2,TTTATCGAATATAATAGTACATAAAAAAAAAAAAAA [XGTACX_site1734],8.49 ± 0.35
3,AGATTATATAAAAAAGTGCATATTTTCATTTTTTTT [GTGCAC_site9448],8.39 ± 0.47
4,CATTAAAATGGTAAATGTACATATCCATCTTCTCAC [XGTACX_site4636],8.89 ± 0.35
5,TCCCTTTGTATATATATATAAATATATATATATATA [CACACA_negctrl_site157],9.11 ± 0.25
6,TTATGAAGCAGACATGCATGTTATGGCTTAAATAAT [TGCATGCA_site492],8.97 ± 0.45
7,ACATTTTTTTTGTGAGTCTTTGCGGCATCAAAATTT [XGTACX_negctrl_site348],8.7 ± 0.36
8,AAAAAAGAAAAAAACTGTACATGATAAATATTTATT [XGTACX_site7270],8.79 ± 0.52
9,ATTATATTCCAAGTTTGTACATATATATAAAAGTAT [XGTACX_site1631],8.72 ± 0.34
10,GTAAAAGTTAAAAAAACATGCAAAATTTAAAAAAAA [TGCATGCA_site637],8.71 ± 0.54
11,ATACATATATATATTCTACACACTTATAATATAATA [CACACA_site8782],8.78 ± 0.45
12,ACTATATTTGCCCTTTTAATCAGAACAAAAAAAAAA [CACACA_negctrl_site1051],8.31 ± 0.41
13,AAAAAAAAAAAATCATGTACTTATTTTTCATTGTTG [XGTACX_site1542],8.63 ± 0.46
14,AAATAAGCATATACAAACATGCATACATATAAATAA [CACACA_negctrl_site246],8.96 ± 0.45
15,CTTATATTAAAAACTTGTACACATGTTAAGAATTTT [XGTACX_site5857],8.51 ± 0.4
16,TTTATATATTATACATGTACATATTTATTTATATAA [XGTACX_site3474],8.79 ± 0.4
17,TATATGCACTTAATATGTACACAAAAAAAAAAAAAA [XGTACX_site6199],8.6 ± 0.44
18,AGTATAAAAATAAGCACACACACAAATATATATTTA [CACACA_site923],9.77 ± 0.16
19,TTTCTTCTGCATTATGCACACTATAATTCGTTAAAA [CACACA_site5568],9.05 ± 0.31
20,TTTTCTTTTACAAAGGGTACATAATTTAAATTCATA [XGTACX_site3876],8.43 ± 0.36
21,ATAATATAAATATTAACACACATCCTTTTATGTATA [CACACA_site6685],8.88 ± 0.45
22,TTACAAAACACTTATACACACATATAAATATAAATA [CACACA_site7307],8.93 ± 0.42

row,Sequence,gcPBM binding intensity (ln)
1,CTCCTCATATAATTTTGTACATAAAAAATTACCATT [XGTACX_site3879],8.65 ± 0.33
2,TATTTTATAATTTACCGTACATTAATTGTATTATTA [XGTACX_site5722],8.8 ± 0.41
3,ATATATTTTATATGTGTGCACTATATATATATATAT,9.41 ± 0.13
4,TCTTATTTTATAAATATAAATATATATATATATATA [GTGCAC_negctrl_site479],8.65 ± 0.18
5,ATTAATATATAACGTGCACACACACCGTTACGTATG [CACACA_site8543],9.59 ± 0.35
6,TGTTATATATATTGACTTAATAAATAAATAAATATA [GTGCAC_negctrl_site590],8.28 ± 0.36
7,ATATATTTTAAAGAAAGTACCCACCGTTTGAAGTCA [XGTACX_site2273],8.66 ± 0.35
8,TAAAAGAAATAAGGTGCACACATATACATATATATA [CACACA_site8037],9.26 ± 0.45
9,TTTCTAAATGTTTATATATATATATATATATAAATA [GTGCAC_negctrl_site397],8.72 ± 0.26
10,CTATAAATAACAGAAAGTACATATACATGGATATAT [XGTACX_site3317],8.91 ± 0.54
11,AATATATCAAAAATTGGATAGTTTCTTATAAAAAAT [CACACA_negctrl_site39],8.43 ± 0.46
12,TATTTTGCTCATCCATGTACACATAGATATATTTTA [XGTACX_site8244],8.76 ± 0.42
13,TTCTTTTCAGAAGGAAAGAATTATAACATATCATAA [XGTACX_negctrl_site548],8.16 ± 0.46
14,ATATTATGTGAAGAACGTACAAATTTTTACACTATA [XGTACX_site1485],8.96 ± 0.42
15,TAATATAACAAAAAAATAAAATAAAATAAAAAATAA [CACACA_negctrl_site109],8.54 ± 0.54
16,ACTATTTAAATGCAAAGTACTTTGATAATAAACAAT [XGTACX_site2608],8.85 ± 0.45
17,ATATAATAATATTAAAGTACATGCATATATATTTAT [XGTACX_site7422],8.89 ± 0.3
18,CATAATATCTCTTTGTGTACATATAGTTATTATTAT [XGTACX_site7688],8.96 ± 0.42
19,ATTTTTTAAAAAAACATACACACAAAAAAAAAAAAA [CACACA_site3936],8.73 ± 0.47
20,ATTATTATATATAAAACACACAATTTTGTTTTCACA [CACACA_site3965],8.71 ± 0.55
21,CTGGAGTTAAAAATGTGTACCTAAAAAATTTTGTTC [XGTACX_site5554],8.55 ± 0.49
22,CTTGTATATAAACACACACACACTTTCTTTTTTTAA [CACACA_site8602],9.44 ± 0.23

row,Sequence,gcPBM binding intensity (ln)
1,CCCCTTAATTTATTTTGTACATATAATTTTTTTTTT [XGTACX_site3270],9.01 ± 0.27
2,ATTAATCAATATAGGCGTACAAAAAAAATAAATTAT [XGTACX_site1513],8.82 ± 0.47
3,AAAAAAAAAAAAAAAAAAAAAAATATATATATATTT [GTGCAC_negctrl_site502],8.7 ± 0.25
4,GTATTTTTAAATGACACACACATATATAAATATGTA [CACACA_site6880],9.01 ± 0.37
5,ACAAAAATAAGCAAATGTACATATGTATAATATATT [XGTACX_site2492],9.14 ± 0.39
6,TATAAACATAAATATACACACAAACATATAGGTATT [CACACA_site6690],9.17 ± 0.44
7,ATATTATAATTGAAGGTGCAAAATGTAATATAGATA [GTGCAC_site9661],8.94 ± 0.42
8,ATTATTATTTAAAAAAGTACATTGAAGTTCATAATA [XGTACX_site3575],8.39 ± 0.4
9,ATTCATTTTTTGGGGGGTACACCCTTTTAAACATTT [XGTACX_site4797],9.45 ± 0.12
10,GTATAAAAAAATATATGTACTTATTTACATATATAT [XGTACX_site4744],8.9 ± 0.47
11,TGAAATGATATATAAACACACATATATATATATATA [CACACA_site3511],9.62 ± 0.25
12,ATTTTTAATGTGATCACACATAAATATTATATATAT [CACACA_site5641],8.74 ± 0.39
13,GGACAAGTTTTTTACATAAATAAAAAAAATAAAAAA [XGTACX_negctrl_site125],8.6 ± 0.57
14,TTAAAGCTGACATATACACACATACATAAATTCATA [CACACA_site5377],9.08 ± 0.33
15,TATACATATATTATATGTACATATATATATAATATA [XGTACX_site2942],8.71 ± 0.36
16,ATACTTATGATAAATACACACTTGAAATTAAGGATT [CACACA_site4772],8.85 ± 0.37
17,CGAACAAACAAATAAACACACAAAAAAAAATATATA [CACACA_site1825],9.11 ± 0.5
18,AATGTGAAAAAAAAAAGTACAGACCTAATCAAAAAA [XGTACX_site2486],8.84 ± 0.57
19,TTTTTTAAAAGATATATAATATGTATGAATATTCAA [XGTACX_negctrl_site380],8.26 ± 0.41
20,AATATAAAAAAAGAGGAGGGATGGTATACTTGTGGT [CACACA_negctrl_site986],9.03 ± 0.4
21,ATAGAAGGCAACTTGGTGCACAAAAAAAAAAATAAT,9.13 ± 0.5
22,AAAAAAAATACATACACACACACACCCACATATATA [CACACA_site3561],10.13 ± 0.05
